This note sets out measurements from PubChem BioAssay AID488969 (Vanderbilt High Throughput Screening Facility, 2010).

In all, about 110,000 compounds were measured (“z-score”: median about -0.1, highest 2% from about 2 on). The list shows a part of the results.

For the assay, the target named is Metabotropic glutamate receptor 8 (Rattus norvegicus) (UniProt P70579). Description: rat mGluR8 modulators via GIRK flux, primary screen, cell-based, thallium flux, HTS (AID 488969). Conditions: HEK293 rat mGluR8, GIRK (G protein-gated inwardly rectifying potassium channel) thallium flux, FluoZin2; at 10 µM; stronger effect = higher value; submaximal glutamate (EC20) added with thallium.
UniProt P70579, sequence (P70579 whole entry, looked up): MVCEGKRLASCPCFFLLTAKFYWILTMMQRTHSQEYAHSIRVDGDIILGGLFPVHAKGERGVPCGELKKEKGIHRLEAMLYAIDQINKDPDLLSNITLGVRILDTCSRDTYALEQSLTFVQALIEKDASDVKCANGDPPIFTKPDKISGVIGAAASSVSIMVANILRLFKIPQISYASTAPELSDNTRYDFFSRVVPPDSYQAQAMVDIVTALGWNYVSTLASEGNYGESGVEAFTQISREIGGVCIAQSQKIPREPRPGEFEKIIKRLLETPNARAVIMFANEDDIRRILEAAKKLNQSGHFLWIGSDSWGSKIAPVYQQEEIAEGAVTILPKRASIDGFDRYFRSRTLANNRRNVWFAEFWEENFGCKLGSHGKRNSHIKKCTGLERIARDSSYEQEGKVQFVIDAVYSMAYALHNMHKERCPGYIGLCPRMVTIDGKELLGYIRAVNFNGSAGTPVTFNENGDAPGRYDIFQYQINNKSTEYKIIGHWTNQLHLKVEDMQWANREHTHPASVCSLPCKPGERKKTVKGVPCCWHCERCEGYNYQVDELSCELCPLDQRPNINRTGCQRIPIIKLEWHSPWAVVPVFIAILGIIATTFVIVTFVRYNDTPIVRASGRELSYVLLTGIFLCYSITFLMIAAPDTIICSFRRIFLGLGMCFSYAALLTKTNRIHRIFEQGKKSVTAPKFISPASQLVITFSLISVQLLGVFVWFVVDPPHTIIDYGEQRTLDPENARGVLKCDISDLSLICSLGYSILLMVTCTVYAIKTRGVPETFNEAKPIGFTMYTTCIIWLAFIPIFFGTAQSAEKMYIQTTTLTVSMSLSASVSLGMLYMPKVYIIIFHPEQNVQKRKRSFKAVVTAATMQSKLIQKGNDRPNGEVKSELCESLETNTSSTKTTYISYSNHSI
Turning to `O=C1CC(N2CCCN(C3CC(=O)N(c4ccc(F)cc4)C3=O)CC2)C(=O)N1c1ccc(F)cc1` (configuration not stated), the z-score was -0.249.

Regarding `O=S1(=O)C=CC(Nc2ccccc2)C1` (configuration not stated), the z-score was 0.992.

Consider `COc1cc(C)ccc1OCCOc1c(C)cc(Cl)cc1Cl`, for which the z-score was -0.134.

`Nc1c(S(=O)(=O)c2cccs2)c2nc3ccccc3nc2n1Cc1ccc2c(c1)OCO2`: the z-score was -0.174.

Regarding `CCOc1nc(Nc2ccc(OC)c(Cl)c2)nc(N2CCN(c3ccc(OC)cc3)CC2)n1`, the z-score is -0.0456.

As to `COC(=O)c1ccc(COC(=O)c2ccccc2OC)cc1`, the z-score was -0.184.

`Cc1cc(=O)[nH]c(-n2[nH]c(C)cc2=O)n1` gave a z-score of 0.322.

In turn, `Cc1ccc(NC(=O)CCn2c(=O)oc3ccccc32)c(C)c1` displayed a z-score of 0.00309.

For `Cc1ccnc(SCC(=O)c2ccc([N+](=O)[O-])cc2)n1`, the z-score was -0.0334.

In turn, `C/C(=N\OCC(=O)N/N=C/c1ccc(C)cc1O)c1cccs1` had a z-score of 0.606.

As for `O=C(CSc1nccn1Cc1ccccc1)NCc1ccccc1`, the z-score is -0.325.

`CC(=O)c1ccc(NS(=O)(=O)c2ccccc2)cc1`: the z-score is -0.174.

Regarding `CN1C(=O)c2ccc(NC(=O)C3CCCCC3)cc2C1=O`, the z-score is -0.446.

As to `O=C1C2CCCN2C(c2ccc(Br)cc2)N1c1ccc(F)cc1` (configuration not stated), the z-score is -0.348.

For `N#Cc1ccc(N2Cc3ccccc3/C2=N/C(=O)Nc2ccc(Cl)cc2)cc1`, the z-score is -0.0564.

As for `O=C1Cc2ccccc2C(c2ccc(Br)cc2)N1` (configuration not stated), the z-score was -0.142.

For the molecule `COc1ccc(-n2nnnc2SCc2nc(N)nc(N3CCOCC3)n2)cc1`, the z-score is -0.0167.

Regarding `S=c1[nH]nc(-c2ccc3ccccc3n2)n1-c1ccc2ncccc2c1`, the z-score is -0.148.

`COC(=O)Nc1sc(C)nc1-c1ccccc1` registered a z-score of 0.156.

`CC(=O)N1CCc2cc(S(=O)(=O)N3CCc4ccccc4C3)ccc21`: the z-score is -0.722.

In turn, `Cc1cccc(-n2cc[nH]c2=S)c1C` came in with a z-score of 0.000959.

Take `CCOC(=O)c1cccc(NC(=O)CCn2cccc2)c1`: the z-score is -0.42.

Consider `COc1cccc(N2CCN(C3CC(=O)N(c4ccc(Cl)c(Cl)c4)C3=O)CC2)c1` (configuration not stated), for which the z-score is -0.256.

As to `Cc1ccc(NC2CC(=O)N(c3ccc(C)cc3)C2=O)cc1` (configuration not stated), the z-score was -0.219.

As to `COCCNC(=O)C1(C)Oc2ccccc2NC1=O` (configuration not stated), the z-score was -0.0416.

In the case of `Cc1ccc(C(=O)C2=C(O)C(=O)N(c3ncccn3)C2c2ccc(Cl)cc2)o1` (configuration not stated), the z-score is -2.11.

On to `CCOC(=O)N1CCN(CC(=O)Nc2ccc(Oc3ccccc3)cc2)CC1`, for which the z-score was -0.329.

As for `Cc1ccc(N2C(=O)N(CC(=O)c3cc(C)ccc3C)C(=O)C2C)cc1` (configuration not stated), the z-score was -0.366.

On to `O=C(O)CCc1nc(-c2ccc(Cl)cc2)no1`, for which the z-score was -0.537.

With `CN=C(c1ccco1)n1c(=S)nc(-c2ccco2)n(C)c1=S`, the z-score is -0.741.

The molecule `CCN(CC(=O)NC1CCS(=O)(=O)C1)S(=O)(=O)c1ccc(C)c(C)c1` (configuration not stated) yielded a z-score of 0.324.

As to `Cc1cc(C)n(-c2nc(SCCN(C)C)c3c4c(sc3n2)CCCC4)n1`, the z-score amounted to 0.869.
